Assay results as given in the supplement of paper PMC3334620.
The full ranking holds about 33,000 sequences; the median of “E-score (-0.5 to 0.5)” is about -0.035, and the highest 2% start at about 0.34. This is one part of the list.

target: T1, Mot3 (UniProt P54785); assay: PBM E-score (8-mer binding enrichment) (E-score (-0.5 to 0.5)); higher = stronger / more preferred TF binding; most listed sequences are background and not binding sites; conditions: protein concentration: 200 nM; construct: GST-full length
T1 sequence: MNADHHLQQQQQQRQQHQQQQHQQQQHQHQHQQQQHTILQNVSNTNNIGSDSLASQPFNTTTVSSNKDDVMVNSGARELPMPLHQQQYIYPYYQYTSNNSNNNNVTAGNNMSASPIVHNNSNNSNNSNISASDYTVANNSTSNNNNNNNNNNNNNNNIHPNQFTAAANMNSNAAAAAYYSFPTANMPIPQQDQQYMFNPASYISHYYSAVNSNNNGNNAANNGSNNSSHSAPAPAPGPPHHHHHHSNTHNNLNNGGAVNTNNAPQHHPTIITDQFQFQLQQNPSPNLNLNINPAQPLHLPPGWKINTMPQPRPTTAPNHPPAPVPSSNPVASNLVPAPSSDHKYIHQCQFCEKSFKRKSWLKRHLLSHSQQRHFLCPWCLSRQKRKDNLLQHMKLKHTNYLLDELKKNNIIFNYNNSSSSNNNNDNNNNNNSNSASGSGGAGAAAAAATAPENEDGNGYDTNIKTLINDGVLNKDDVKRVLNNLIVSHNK
Summary of the method: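 PURExpress in vitro transcription/translation supplied GST-tagged yeast transcription factors, either full-length or DNA-binding domain. Applied at about 100-200 nM to universal all-10-mer Agilent arrays double-stranded by primer extension, the bound protein was detected with fluorescent anti-GST. E-scores, modified Wilcoxon-Mann-Whitney statistics, were given by the Universal PBM Analysis Suite to ungapped eight-base words pooled with their reverse complements after masliner normalisation.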

| Sequence | PBM E-score |
| --- | --- |
| ATGTGTAC | 0.285 |
| CCTATGGA | 0.0104 |
| ACGCGTGG | -0.0954 |
| CCAGACGC | -0.195 |
| CAACTAAC | 0.101 |
| AAACGGAA | -0.0641 |
| GCGGAGGA | -0.0934 |
| CCTGGTGC | 0.0368 |
| ATATTACC | 0.262 |
| TGCGCACA | 0.0582 |
| AATTATCG | 0.11 |
| TACTAGTA | 0.296 |
| GAGGTCCC | -0.303 |
| ACATAGGA | 0.0993 |
| GCTCTCGA | -0.119 |
| CAGCCGCC | -0.28 |
| ACTAGAGC | -0.122 |
| AATATAGC | 0.0407 |
| AGAAGAAA | -0.00366 |
| GCTAGCAA | -0.0278 |
| CGCGGGGC | -0.0394 |
| AATCGGGG | -0.109 |
| GAGTTCGA | 0.00472 |
| GCTAACTA | 0.00452 |
| AACGGCGT | 0.0368 |

| Sequence | PBM E-score |
| --- | --- |
| CGACTTAG | -0.183 |
| AGTACGAG | -0.147 |
| ACTAACAT | 0.287 |
| ACCAAACG | -0.18 |
| CTACTGTC | -0.103 |
| ACTCCAGT | -0.369 |
| GAGTTTAC | 0.193 |
| GCCCTAAA | -0.125 |
| ACTCTTCG | -0.0917 |
| GCCCCTTA | -0.22 |
| AGCAGATG | -0.136 |
| CCATTTCA | -0.142 |
| CGCGACTC | -0.218 |
| TATAGAGA | -0.0555 |
| CGTGACAC | -0.0532 |
| AAAGCGGG | -0.0616 |
| GCAACGAC | -0.00281 |
| CTCATGTA | 0.359 |
| AATCGAAA | -0.14 |
| AGTTTGTA | 0.204 |
| GAGACCAC | 0.0974 |
| CGATCGGA | -0.154 |
| CCGACTCA | -0.35 |
| CAAGAGTA | 0.116 |
| ATTTGAAG | -0.118 |

| Sequence | PBM E-score |
| --- | --- |
| GACCTACC | -0.119 |
| ATACCAGC | -0.225 |
| AGGTTGAT | -0.099 |
| CGTATTCA | 0.234 |
| ATATCGAC | -0.0551 |
| CGATTACG | 0.123 |
| GCCACGGA | -0.162 |
| AACAACTT | 0.126 |
| CTCCCATC | -0.138 |
| CAGAGACA | -0.0179 |
| ACACCTCT | 0.0285 |
| ATTAGTAG | 0.196 |
| GACTATCC | -0.248 |
| TTATGAAA | 0.0346 |
| AGCTCGTC | -0.286 |
| GCTGCAAA | -0.025 |
| GAATTAGA | -0.0571 |
| ACACTTTG | 0.168 |
| ACAACTTC | 0.0756 |
| CGGCCTCA | -0.0433 |
| AGGACCCC | -0.273 |
| CGGGCCCA | -0.0941 |
| CCGATTCA | -0.199 |
| CAACGACC | -0.124 |
| GTGGGAAA | -0.148 |

| Sequence | PBM E-score |
| --- | --- |
| ATTAGACC | -0.114 |
| CCGCAAAA | 0.00107 |
| CTCACCCA | -0.181 |
| CCGGGTAC | -0.053 |
| TAGCACGA | -0.0559 |
| ACCTCTTG | -0.0648 |
| TGCTACCA | -0.0584 |
| CTACACTC | 0.0954 |
| AACCCGAA | 0.0529 |
| TAGCGAGA | -0.181 |
| CCGATGCC | -0.069 |
| ATTTGCGG | -0.113 |
| CACTCCGG | -0.00794 |
| CAATCCTG | 0.132 |
| CGCCGGAC | -0.2 |
| ATGGCTGA | -0.158 |
| AATCGAAG | 0.0585 |
| AGACCCGA | -0.0367 |
| CCGCGTCA | 0.109 |
| AGCCTAGC | -0.141 |
| AACCCTCT | -0.172 |
| CCCAACAA | 0.0799 |
| AGCATGCT | 0.0528 |
| CGACACAG | 0.0362 |
| GGTCTCAA | -0.305 |

| Sequence | PBM E-score |
| --- | --- |
| ATTATTAG | -0.00718 |
| GTCGTCAC | -0.168 |
| ACGGTGAA | 0.0364 |
| GCCTGTGA | 0.283 |
| CCTAAACC | -0.0693 |
| CTAGATCC | -0.159 |
| ATTAGGTC | -0.0698 |
| AGCACTTA | -0.128 |
| CTACGTTA | 0.217 |
| TAGTACTA | -0.00966 |
| GTTGTTCA | 0.133 |
| GAATTAAA | 0.133 |
| ACCGCCGG | -0.387 |
| CCAGTTTC | -0.206 |
| TTCTCAAA | 0.0418 |
| TCCAAGAA | -0.132 |
| CCACGGAG | -0.164 |
| AAGCTAAG | -0.0161 |
| CACCCAGG | 0.0846 |
| CACATACA | 0.239 |
| CAAACTTA | 0.179 |
| ATTTTGGG | -0.162 |
| CTAAACCC | 0.058 |
| CACCACGG | -0.0505 |
| AAGCTTAA | 0.099 |

| Sequence | PBM E-score |
| --- | --- |
| GCTCTGCA | -0.147 |
| AACTACCA | 0.0545 |
| GGTCGTCA | -0.146 |
| CGTAGGTC | -0.0769 |
| GCGAGTGA | -0.0321 |
| AACATCAA | 0.171 |
| ACTAAGAT | 0.0223 |
| TGGTAAAA | 0.103 |
| CAATCCGC | -0.123 |
| CGAGAGAC | -0.248 |
| CGTCTCAC | -0.0924 |
| AATGCAAG | 0.129 |
| ATACCTAT | 0.106 |
| ACTTCTCC | -0.113 |
| ATAGAGGG | -0.023 |
| ACCGAGTA | 0.0498 |
| TCCCGCCA | -0.297 |
| GGCTTATA | -0.00151 |
| CTGGTATA | -0.226 |
| TATTGCGA | -0.0381 |
| GAGCTGAA | -0.166 |
| ATATATTG | 0.0788 |
| CTATTTAC | 0.243 |
| ATTGGGCG | -0.122 |
| AATCACGC | 0.056 |

| Sequence | PBM E-score |
| --- | --- |
| CATTCCTC | -0.00051 |
| GAAACCTA | 0.0788 |
| AAGATTAA | 0.0501 |
| GACCCTTA | -0.104 |
| ATGCTTAA | 0.0923 |
| CATCACGC | -0.173 |
| AAGCTACA | 0.024 |
| ACTACAGT | 0.164 |
| CAAGCCTG | 0.0397 |
| GCGTTCAC | -0.0491 |
| ATGTTGCC | 0.312 |
| CATAGACA | 0.104 |
| ATTTGTAC | 0.126 |
| GAGTCTGA | -0.305 |
| TCATGTAA | 0.414 |
| AAATGCGT | 0.0791 |
| AGCGGCCC | -0.366 |
| AGAGTCTG | -0.213 |
| ACGCTCGC | -0.0398 |
| GGAGCTAC | 0.0233 |
| TAGCCAGA | -0.0655 |
| AGCTAATC | -0.00141 |
